# Test results taken from US10925856B2, “Methods and compositions involving bucindolol for the treatment of atrial fibrillation” (priority 2018, dated 2021).
# Tests used:
# [1] = tested on: HFrEF patients with the ADRB1 Arg389Arg genotype at high risk for recurrent AF; test: GENETIC-AF: time to symptomatic AF/AFL or ACM (Phase 3 primary endpoint); format: in vivo, human; conditions: for hazard ratio, Phase 3 (symptomatic AF/AFL or ACM): covariate adjusted
# [2] = tested on: HFrEF patients with the ADRB1 Arg389Arg genotype with implanted Medtronic devices; test: GENETIC-AF AF burden (AFB) device substudy: continuous monitoring, AF/AFL event = AF burden ≥6 hours per day; format: in vivo, human
# [3] = tested on: HFrEF patients with the ADRB1 Arg389Arg genotype; test: GENETIC-AF secondary and heart failure endpoints (VT/VF/SVT, hospitalization, ACM); format: in vivo; conditions: Entire cohort
compound,measurement,setting,value
"CC(C)(Cc1c[nH]c2ccccc12)NCC(O)COc1ccccc1C#N (stereo not shown) [bucindolol, 2-(3-(1-(1H-indol-3-yl)-2-methylpropan-2-ylamino)-2-hydroxypropoxy)benzonitrile]","hazard ratio, Phase 3 (symptomatic AF/AFL or ACM)",[1]; Canada (n = 59),1.60
same,"hazard ratio, Phase 3 (symptomatic AF/AFL or ACM)",[1]; Entire cohort (n = 267),1.02
same,"hazard ratio, Phase 3 (symptomatic AF/AFL or ACM)",[1]; Europe (n = 81),1.04
same,"hazard ratio, Phase 3 (symptomatic AF/AFL or ACM)",[1]; U.S. (n = 127),0.73
same,"Time to symptomatic AF/AFL or ACM, difference in effectiveness","[1]; entire cohort, time to event curves",do not suggest a difference in effectiveness
same,Reduction in AFB by bucindolol vs. metoprolol,[2]; 6-week intervals and entire 24-week period,not statistically significant
same,AFB ± SD,"[2]; Censored at ECV, AF ablation, Class 3 antiarrhythmic drugs, week 1(d1-7)",4.8 ± 8.3
same,AFB ± SD,"[2]; Censored at ECV, AF ablation, Class 3 antiarrhythmic drugs, week 2",7.1 ± 10.6
same,AFB ± SD,"[2]; Censored at ECV, AF ablation, Class 3 antiarrhythmic drugs, week 3",7.4 ± 11.2
same,AFB ± SD,"[2]; Censored at ECV, AF ablation, Class 3 antiarrhythmic drugs, week 4",8.5 ± 11.1
same,AFB ± SD,"[2]; Censored at ECV, AF ablation, Class 3 antiarrhythmic drugs, week 5",7.8 ± 11.3
same,AFB ± SD,"[2]; Censored at ECV, AF ablation, Class 3 antiarrhythmic drugs, week 6",7.8 ± 11.3
same,AFB ± SD,"[2]; Censored at ECV, AF ablation, Class 3 antiarrhythmic drugs, week 7",6.7 ± 10.7
same,AFB ± SD,"[2]; Censored at ECV, AF ablation, Class 3 antiarrhythmic drugs, week 8",7.0 ± 10.7
same,AFB ± SD,"[2]; Censored at ECV, AF ablation, Class 3 antiarrhythmic drugs, week 9",6.0 ± 10.5
same,AFB ± SD,"[2]; Censored at ECV, AF ablation, Class 3 antiarrhythmic drugs, week 10",5.6 ± 9.9
same,AFB ± SD,"[2]; Censored at ECV, AF ablation, Class 3 antiarrhythmic drugs, week 11",7.2 ± 10.8
same,AFB ± SD,"[2]; Censored at ECV, AF ablation, Class 3 antiarrhythmic drugs, week 12",7.4 ± 11.2
same,AFB ± SD,"[2]; Censored at ECV, AF ablation, Class 3 antiarrhythmic drugs, week 13",5.4 ± 9.5
same,AFB ± SD,"[2]; Censored at ECV, AF ablation, Class 3 antiarrhythmic drugs, week 14",4.7 ± 9.6
same,AFB ± SD,"[2]; Censored at ECV, AF ablation, Class 3 antiarrhythmic drugs, week 15",2.7 ± 7.5
same,AFB ± SD,"[2]; Censored at ECV, AF ablation, Class 3 antiarrhythmic drugs, week 16",3.9 ± 9.0
same,AFB ± SD,"[2]; Censored at ECV, AF ablation, Class 3 antiarrhythmic drugs, week 17",4.0 ± 9.2
same,AFB ± SD,"[2]; Censored at ECV, AF ablation, Class 3 antiarrhythmic drugs, week 18",3.5 ± 8.1
same,AFB ± SD,"[2]; Censored at ECV, AF ablation, Class 3 antiarrhythmic drugs, week 19",3.1 ± 7.1
same,AFB ± SD,"[2]; Censored at ECV, AF ablation, Class 3 antiarrhythmic drugs, week 20",3.1 ± 8.2
same,AFB ± SD,"[2]; Censored at ECV, AF ablation, Class 3 antiarrhythmic drugs, week 21",1.6 ± 6.2
same,AFB ± SD,"[2]; Censored at ECV, AF ablation, Class 3 antiarrhythmic drugs, week 22",1.6 ± 6.2
same,AFB ± SD,"[2]; Censored at ECV, AF ablation, Class 3 antiarrhythmic drugs, week 23",1.7 ± 6.2
same,AFB ± SD,"[2]; Censored at ECV, AF ablation, Class 3 antiarrhythmic drugs, week 24",2.0 ± 6.2
same,"Hazard ratio, time to first AF/AFL/ACM, bucindolol vs. metoprolol","[2]; DxT12/DTRI-2 cohort, device-based detection N=49",0.59
same,"Hazard ratio, time to first device-detected AF/AFL/ACM event, bucindolol vs. metoprolol",[2]; U.S. AFB substudy cohort N=42,0.49 and 0.50
same,AFB ± SD,"[2]; Uncensored, week 1(d1-7)",4.8 ± 8.3
same,AFB ± SD,"[2]; Uncensored, week 2",7.4 ± 10.7
same,AFB ± SD,"[2]; Uncensored, week 3",7.9 ± 11.0
same,AFB ± SD,"[2]; Uncensored, week 4",8.9 ± 11.1
same,AFB ± SD,"[2]; Uncensored, week 5",8.9 ± 11.0
same,AFB ± SD,"[2]; Uncensored, week 6",7.6 ± 10.6
same,AFB ± SD,"[2]; Uncensored, week 7",7.5 ± 10.4
same,AFB ± SD,"[2]; Uncensored, week 8",7.9 ± 10.6
same,AFB ± SD,"[2]; Uncensored, week 9",6.1 ± 9.9
same,AFB ± SD,"[2]; Uncensored, week 10",6.4 ± 10.0
same,AFB ± SD,"[2]; Uncensored, week 11",7.3 ± 10.6
same,AFB ± SD,"[2]; Uncensored, week 12",7.0 ± 10.8
same,AFB ± SD,"[2]; Uncensored, week 13",5.6 ± 9.5
same,AFB ± SD,"[2]; Uncensored, week 14",5.2 ± 9.1
same,AFB ± SD,"[2]; Uncensored, week 15",3.5 ± 8.1
same,AFB ± SD,"[2]; Uncensored, week 16",5.0 ± 9.6
same,AFB ± SD,"[2]; Uncensored, week 17",3.9 ± 8.6
same,AFB ± SD,"[2]; Uncensored, week 18",3.8 ± 8.0
same,AFB ± SD,"[2]; Uncensored, week 19",5.0 ± 9.2
same,AFB ± SD,"[2]; Uncensored, week 20",5.1 ± 9.9
same,AFB ± SD,"[2]; Uncensored, week 21",4.4 ± 9.4
same,AFB ± SD,"[2]; Uncensored, week 22",4.2 ± 8.9
same,AFB ± SD,"[2]; Uncensored, week 23",3.7 ± 8.6
same,AFB ± SD,"[2]; Uncensored, week 24",3.4 ± 8.0
same,"Hazard ratio, time to first AF/AFL/ACM, bucindolol vs. metoprolol",[2]; device substudy population assessed by clinic-based 12-lead ECGs,0.69
same,"Hazard ratio, time to first device-detected AF/AFL/ACM event, bucindolol vs. metoprolol","[2]; entire AFB substudy cohort N=69, unadjusted",0.75
same,"Hazard ratio, time to first device-detected AF/AFL/ACM event, bucindolol vs. metoprolol",[2]; ex-U.S. AFB cohort,1.32
same,"Hazard ratio, AF burden substudy endpoint, bucindolol vs. metoprolol",[2]; interim analysis,0.84
same,AF/AFL/ACM or HF Hospitalization during Total Study Period,[3],(63.4%)
same,Total All-cause Hospitalization during Total Study Period,[3],2.8 ± 8.1 days/patient
same,"VT, VF or Sx SVT during the 24-Week Follow-up Period",[3],(1.5%)
same,ACM,[3]; Total Study Period,(2.3%)
same,ACM or HF hospitalization,[3]; Total Study Period,8.2%
same,"ACM or HF hospitalization, number of patients",[3]; Total Study Period,11
same,"ACM, number of patients",[3]; Total Study Period,3

# Values joined by “and” are separate entries in the source; they are usually repeats but may differ in a detail not shown here. Equal values may be shown once.
